Several values for one entry are separate records, joined by “and”; a condition that tells them apart may be missing. Equal values may be shown once. In all, about 420,000 compounds went through this assay and about 50,000 (12%) were called active. The inconclusive results got no clear call from the source; some entries with a clear call stand among them for comparison. The call rests on the fitted dose curve; in most records, active means well fitted inhibition curve with a large enough effect; inconclusive means small, poorly fitted or top-dose-only effect; inactive means flat fitted curve, though single readings scatter. Potencies of inconclusive entries are left out as doubtful fits.
test: qHTS for Inhibitors of human tyrosyl-DNA phosphodiesterase 1 (TDP1): qHTS in cells in presence of CPT; details: chicken DT40 Tdp1-/-;hTDP1 cells + 20 nM CPT, ATP luminescence, 48 h; activity change, negative = growth inhibition: at 46.2 µM (top of the series) unless noted; further: nearly all actives have a fitted effect of over 55% in size
In short: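 Cell growth measured by CellTiter-Glo luminescence after a minimum 48 h, 37 C compound exposure with 20 nM CPT in Tdp1-knockout DT40 cells stably expressing hTDP1, seeded 400/well; qHTS titration format.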
On the % scale 0 is the no-effect control and ±100 the full control effect; potency means the concentration at half of the fitted maximal effect; tags describe the fitted curve by direction and shape.

Compound	activity change, negative = growth inhibition	Potency
Cc1cccc(N(CC(=O)NCc2ccco2)C(=O)CCC(=O)Nc2nccs2)c1	inactive: -5.04%	–
O=C(c1ccc(S(=O)(=O)Cc2ccccc2Cl)c([N+](=O)[O-])c1)N1CCOCC1	–	active: 20.6 µM
COc1ccc(CNCc2ccc3c(c2)OCO3)c(OC)c1OC	–	inconclusive [inhibitor, single point]
CC1CCc2c(sc3nnn(CC(=O)Nc4c(C(C)C)cccc4C(C)C)c(=O)c23)C1 (stereo not drawn)	–	inconclusive [inhibitor, single point]
C=CCSc1n[nH]c(-c2ccc(OCCC)cc2)n1	–	active: 29.1 µM
Cc1cc(C)cc(CC(Cc2nc3ccccc3[nH]2)c2nc3ccccc3[nH]2)c1 (stereo not drawn)	–	inconclusive [inhibitor, single point]
COc1ccc(CC(=O)Nc2cccc(S(=O)(=O)N3CCOCC3)c2)cc1OC	–	inconclusive [inhibitor, partial curve]
CN(Cc1ccco1)c1ncnc2ccc(-c3ccccc3C(F)(F)F)cc12	–	inconclusive [inhibitor, single point]
COc1ccc(/C=N/NC(=O)c2ccccc2O)cc1CSc1ccccn1	inactive: -5.41%	–
Cc1onc(-c2ccccc2)c1C(=O)NCC(O)c1ccccc1 (stereo not drawn)	inactive: 2%	–
CN1CCc2c(sc3nc(SCC(=O)N4CCCCC4)n(-c4ccccc4)c(=O)c23)C1	–	inconclusive [inhibitor, single point]
CCCn1c2ccccc2c2cnn(CC(=O)NCCCN(CC)c3ccccc3)c(=O)c21	–	inconclusive [inhibitor, single point]
O=C(c1ccc(Br)cc1)N1CCC(C(=O)N2CCN(Cc3ccccc3)CC2)CC1	–	inconclusive [inhibitor, partial curve]
Cc1cc(Cl)ccc1OC(C)C(=O)Nc1ccc(C(=O)Nc2ccccc2C(=O)O)cc1 (stereo not drawn)	–	inconclusive [inhibitor, single point]
O=C(Nc1ncc(Cc2ccccc2Cl)s1)c1ccc(-c2cccc([N+](=O)[O-])c2)o1	–	inconclusive [inhibitor, single point]
O=C(Nc1ncccc1O)c1ccc(S(=O)(=O)Nc2ccccc2)cc1	–	active: 5.17 µM
Cc1sc2ncnc(-n3cnc4ccccc43)c2c1C	–	inconclusive [inhibitor, single point]
COc1ccc(CNC(=O)Cc2cn(C)c3ccccc23)c(OC)c1	inactive: -2.01%	–
CS(=O)(=O)Nc1cccc(-c2cncnc2NCc2cccs2)c1	inactive: -6.18%	–
Cc1onc(-c2c(F)cccc2Cl)c1C(=O)Nc1cccc2nsnc12	–	active: 16.4 µM
C=CCN(CC=C)S(=O)(=O)c1ccc(C(=O)Nc2nc3c(s2)CCc2ccccc2-3)cc1	–	active: 16.4 µM
Cc1ccc(-n2cc(CN(C)Cc3nccn3C)c(-c3ccc(F)cc3)n2)cc1	–	inconclusive [inhibitor, single point]
COc1ccc([C@H]2CC(=O)C=C(c3ccc(O)cc3)C2)cc1OC	–	inconclusive [inhibitor, single point]
O=c1c2c3c(sc2ncn1Cc1ccc(F)cc1)CCC3	inactive: 7.74%	–
O=C(Nc1sc2c(c1C(=O)NCC1CCCO1)CCC2)c1cc(=O)c2cc(Cl)ccc2o1 (stereo not drawn)	inactive: 9.14%	–

Compound	activity change, negative = growth inhibition	Potency
CCc1nnc(NC(=O)c2cccc(S(=O)(=O)N3CCN(c4ccccc4)CC3)c2)s1	inactive: -6.01%	–
COc1ccc(-c2csc3ncnc(N4CCN(c5ccccc5[N+](=O)[O-])CC4)c23)cc1	–	inconclusive [inhibitor, single point]
COc1cc(/C=N/NS(=O)(=O)c2ccc3ccccc3c2)ccc1OCc1ccc(C(=O)O)cc1	inactive: -9.78%	–
Cc1nn(Cc2ccccc2)c(C)c1C(=O)NCCN1C(=O)S/C(=C\c2ccccc2)C1=O	–	active: 20.6 µM
C/C(=N\NC(=S)NC(C)C)c1ccccc1OC(F)F	–	active: 2.91 µM
O=C(c1ccc(COc2c(F)c(F)cc(F)c2F)o1)N1CCN(c2ccccc2)CC1	–	active: 18.4 µM
CC(CCC(=O)O)C1CCC2C3CC(O)[C@@H]4CC(O)CC[C@]4(C)C3CC[C@@]12C (stereo partly drawn)	inactive: 4.1%	–
Cn1nnnc1SCCCNCc1cc(Br)ccc1OCc1ccccc1F	–	active: 16.4 µM
CCOC(=O)c1cnc(-n2nc(C)cc2C)nc1NC	–	inconclusive [inhibitor, single point]
O=C1OC2(c3ccccc31)c1ccccc1-c1ccccc12	inactive: -13.5%	–
Cc1ccccc1OS(=O)(=O)c1cccc([N+](=O)[O-])c1	inactive: -23.5%	–
CCOC(=O)c1cc(-c2ccccc2)n(CC(=O)Nc2ccccc2OCC)c1C	inactive: -81.1%	–
CCCCCCC(C)NC(=S)Nc1cc(S(=O)(=O)N(C)C)ccc1C (stereo not drawn)	–	inconclusive [inhibitor, single point]
Cc1ccc(-c2ccc3c(c2)O[C@H](CN(C)Cc2cncnc2)[C@@H](C)CN([C@H](C)CO)S3(=O)=O)cc1	–	inconclusive [inhibitor, single point]
Cn1c(SCC(=O)Nc2cccc(Br)c2)nnc1-c1cc2ccccc2o1	inactive: -18%	–
COc1cccc(NC(=O)CCCn2c(=O)c3cccn3c3cccnc32)c1	–	inconclusive [inhibitor, single point]
Cc1ccc(CCNC(=O)c2ccc3c(c2)N(Cc2ccccc2F)C(=O)c2ccccc2S3=O)cc1 (stereo not drawn)	–	inconclusive [inhibitor, single point]
COc1ccc2c(c1)/C(=C\c1cccc(/C=C3/C(=O)Nc4ccc(OC)cc43)n1)C(=O)N2	–	active: 1.64 µM
O=C(Oc1cccccc1=O)c1ccccc1	–	active: 18.4 µM
Cc1ccccc1Nc1c([N+](=O)[O-])ccc2c1=NC1(CCCCC1)N=2	inconclusive: -33% [inhibitor]	–
CC(C)(C)c1ccc(S(=O)(=O)N2CCNC(=O)C2)cc1	inactive: -20.8%	–
CCN(C(=O)COC(=O)c1cc2c(s1)CCCCC2)C1CCS(=O)(=O)C1 (stereo not drawn)	inactive: -3.78%	–
N#Cc1nc(COc2ccccc2)oc1NCCCn1ccnc1	inactive: -20.3%	–
CCc1ccc(C(=O)NC(=S)Nc2ccccc2N2CCOCC2)cc1	inactive: -29.2%	–
CNC(=O)c1ccc(-c2cc3onc(-c4ccccc4)c3c(=O)n2C)cc1	–	active: 18.4 µM

Compound	activity change, negative = growth inhibition	Potency
O=c1oc(CCCO)cc2ccc(C#Cc3cccnc3)cc12	–	inconclusive [inhibitor, single point]
CCOC(=O)C1=C(C)NC2=C(C(=O)OC2)C1c1ccccc1 (stereo not drawn)	–	inconclusive [inhibitor, single point]
Cc1cccc(/C=N\NC(=O)c2ccc(Cl)cc2)c1O	–	active: 4.61 µM
C[C@@H]1CN([C@@H](C)CO)C(=O)CCCn2nncc2CO[C@@H]1CN(C)S(=O)(=O)c1ccc(-c2ccccc2)cc1	–	inconclusive [inhibitor, single point]
COc1ccc(-c2nc(CCNC(=O)c3ccccc3)cs2)cc1OC	–	active: 23.1 µM
O=C(O)CCCCCCCCCCC1CCC(O)C1O (stereo not drawn)	inactive: 1.17%	–
Fc1cccc(NC(=S)NCCc2ccccc2)c1	–	inconclusive [inhibitor, single point]
Fc1ccc(-c2cc(-c3ccccc3)c3c(n2)-c2ccccc2OC3)cc1	–	inconclusive [inhibitor, single point]
Cc1cccc(N(CC(=O)N2CCCC2)S(C)(=O)=O)c1C	inactive: -0.939%	–
OCCC1CN(Cc2cccc(F)c2F)CCN1CCc1ccccc1 (stereo not drawn)	–	inconclusive [inhibitor, single point]
O=C(NNC(=O)C1CCC1)c1ccccc1	inactive: 0.324%	–
CCOC(=O)C1=CCN(S(=O)(=O)c2ccc(F)cc2)C1c1cccc(C)c1 (stereo not drawn)	–	inconclusive [inhibitor, single point]
Cc1ccc2c(c1)N(CC(=O)N1CCCCCC1)C(=O)CO2	inconclusive: -34% [inhibitor]	–
CC(=O)N(CCC(c1ccco1)C(C)C)Cc1ccc(OC(C)C)cc1 (stereo not drawn)	–	inconclusive [inhibitor, single point]
Cc1cccc(N2CCN(C(=O)C3CCN(S(=O)(=O)c4cnc[nH]4)CC3)CC2)c1C	–	inconclusive [inhibitor, partial curve]
CCC(C)(C)NC(=O)C(c1ccc(F)cc1)N(Cc1ccco1)C(=O)c1snc(C(N)=O)c1N (stereo not drawn)	–	inconclusive [inhibitor, partial curve, poor fit]
Cc1cc(C)cc(N(CC(=O)NCc2ccco2)S(=O)(=O)c2ccccc2)c1	inactive: -13%	–
O=C(NCCc1ccccc1)/C(=C\c1cccc([N+](=O)[O-])c1)NC(=O)c1ccco1	–	inconclusive [inhibitor, partial curve, poor fit]
COc1ccc(N(C)S(=O)(=O)c2cccc(C(=O)NCc3ccc4c(c3)OCO4)c2)cc1	–	inconclusive [inhibitor, single point]
CCOc1ccc(NC(=O)CSC2=Nc3ccccc3C3=NC(CCC(=O)NCc4cccs4)C(=O)N23)cc1 (stereo not drawn)	inactive: -2.36%	–
CCOc1ccc(-c2nnc(SCC(=O)NCc3ccc(C)cc3)nc2-c2ccc(OCC)c(OC)c2)cc1OC	–	inconclusive [inhibitor, single point]
Cc1ccc(CNC(=O)CCS(=O)(=O)c2ccc3c(c2)CC(C)N3C(=O)C2CC2)cc1 (stereo not drawn)	–	active: 3.66 µM and active: 7.31 µM
CCN(CC)S(=O)(=O)c1ccc(C(=O)NCc2ccc(C)cc2)cc1	–	inconclusive [inhibitor, single point]

From PubChem BioAssay AID686979 (National Center for Advancing Translational Sciences (NCATS), 2013)
